22 molecules from publication PMC12136788 can be followed below.

The list shows a part of the results.

To fix the notation:
T1: UNK ZnF1-3 (human, UniProt Q9C0B0 31-174)
T1 sequence: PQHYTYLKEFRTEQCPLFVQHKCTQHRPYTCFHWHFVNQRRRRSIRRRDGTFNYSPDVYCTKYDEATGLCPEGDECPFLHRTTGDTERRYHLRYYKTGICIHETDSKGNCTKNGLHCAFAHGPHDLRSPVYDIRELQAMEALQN

B1: 75276373_75276493_3767_CDS_ENSG00000166348_ENST00000408019|human|control|control (ssRNA)
RNA: GGGAGUUCUACAGUCCGACGAUCACAGAACCUUGUGAUAUUCACCCAGGAAUCCAAAGGCAAGGAAGUCCCCAAGUCAGUACUGCUGCCCAGAUCCUUAGACCUAACAUCUCUCACUUGGGACAGCUUCUCUUGGUAUAUGUCCAACAGAGGAUUGAGCAUCA
B2: chr2:34631547:34631548:+_ENSMUSG00000026864_ENSMUST00000100171|mus_mus|motif|central (ssRNA)
RNA: GGGAGUUCUACAGUCCGACGAUCUGGGGGAGGGCCUCCACUUCCAUAGAGUUUGCUGAUAAUUGGCUGAACAAUUUCUUCGGGUUCCUUCUUUUUGGCUUUAAAGUCUUCAAUGUCCGCAUCCUGGUGGCUUUCCAGCCAUUCCAACAGAGGAUUGAGCAUCA
B3: chr2:48026839:48026840:+_ENSG00000116062_ENST00000540021|hu_hu|hu_hu_hu_mus_False|88_88 (ssRNA)
RNA: GGGAGUUCUACAGUCCGACGAUCAUAGUGAGCCACUAGCGUCCUAAAUCUCGAACAGUGGCGGUCAUCCGAAAACUGGCCGAUGAAAAACUUGCCCAGUGAAGUGUCCACAAAGCAAACACCAUACACACGAGUGUGACCAGACAACAGAGGAUUGAGCAUCA
B4: 1729879_1729999_916_CDS_ENSG00000013810_ENST00000313288|human|control|control (ssRNA)
RNA: GGGAGUUCUACAGUCCGACGAUCGGUCUGAGUGCCAUCUGCUGGCACGGGGGUGCCCACACCCGCAGGGCAGCCCAGGGCUUCGCCAGGCAGACCCUGCAGGGGUGCUCCUCCGCAGGCUUCCUUAGGGAUUGCACCAGGAGGCAACAGAGGAUUGAGCAUCA
B5: chr6:99998177:99998178:-_ENSG00000112237_ENST00000369220|hu_mus|FALSE|FALSE (ssRNA)
RNA: GGGAGUUCUACAGUCCGACGAUCAAGGGGAAGCAGCACGUCUUCCUGGCCCAUGUCCUGCACAUACUGGAGCAAAGGUCUAUAAGGAUGAUACACUAUCAAGCAACAGUCCAUUAAUUCUAAGAGGUAAAAUUCACAUUCUAGCAACAGAGGAUUGAGCAUCA
B6: chr7:138035701:138035702:+_ENSMUSG00000040268_ENSMUST00000120441|mus_hu|motif|central (ssRNA)
RNA: GGGAGUUCUACAGUCCGACGAUCUCCUGCAUUCAUAACAAAACAGAACUCCGCCUUUGGCCUUAGCUUAGUAGCAUCGCGGACCUUUGAAAUGUAGGUAAGCUUAAUGGCUCCAACACGUGAUGAUCCAGAAGGUAGGUUCUGCAACAGAGGAUUGAGCAUCA
B7: chr17:65740002:65740003:+_ENSG00000130935_ENST00000581375|hu_hu|hu_hu_hu_mus_False|28_58 (ssRNA)
RNA: GGGAGUUCUACAGUCCGACGAUCAACAAAUCUUUCUUCCCUGGACGAACAGGAAGAUUCAUAUUAAAAAAAAUAUAUGUCUAUGAAGUUAGGUGUGGUGGCCACACAGAGCUCCAGAGCACUUUGGGAGGUGGAUCUCUGAGUCAACAGAGGAUUGAGCAUCA
B8: chr5:69958400:69958401:+_ENSMUSG00000029208_ENSMUST00000154728|mus_mus|motif|central (ssRNA)
RNA: GGGAGUUCUACAGUCCGACGAUCGUCAUAAAAAUCUACCACAAUUUCAUUCAAAGGGAAGAGAUAUUUAAGCAUAACUCGGUUUUCAUCAAUAAAAGUCAUAUUUUUCUGAAUUGCUCUUCGUGCCUGACAAAGCGCCAUUAUCAACAGAGGAUUGAGCAUCA
B9: chr4:155069534:155069535:+_ENSMUSG00000074738_ENSMUST00000099265|mus_mus|FALSE|FALSE (ssRNA)
RNA: GGGAGUUCUACAGUCCGACGAUCAUGAUCCUGGGUGCCAGUGGUUUUUGCCAGAAGGGAAUGUAUAUUCUGGCCGGCUCUAUAAAGGCCUCUGGAGAUGGAGAAGACCCCUGGCUGCCAUUGACACUCUAGCCCAGGCCUAUGCAACAGAGGAUUGAGCAUCA
B10: chr5:145543945:145543946:-_ENSG00000133706_ENST00000545646|hu_hu|hu_hu_hu_mus_True|8_78 (ssRNA)
RNA: GGGAGUUCUACAGUCCGACGAUCCUGAACGGCCAGUGGUGGGAAAUAAUCAAGCCAAUGUUCUGCUUCAGAAAACUUCACUAUGUCGUCAUCAGAGAGCCCAAGGGAUUUCAUAAUGUCCCACUGGUAUUUAGAAGAUCCUGCCAACAGAGGAUUGAGCAUCA
B11: chr1:184247048:184247049:-_ENSMUSG00000047539_ENSMUST00000051431|mus_hu|FALSE|FALSE (ssRNA)
RNA: GGGAGUUCUACAGUCCGACGAUCCUGGAACUAGAACCACAUUCCAAUUUACUUUCUAUUCCGAAGACGUUUAGAUUUCCUAAGAGAGUCUAUGGCUUCCGUGGCCUUUUUUCGUUUCCGAGGAGACUCCUCAUUCUGCCCGGACAACAGAGGAUUGAGCAUCA
B12: 53546977_53561689_1691_CDS_ENSMUSG00000029189_ENSMUST00000031090|mouse|control|control (ssRNA)
RNA: GGGAGUUCUACAGUCCGACGAUCUACGGAGUCAUUUUGGUUCCAUGGCACGGUCAGCAGGUCCAUUUGCAGCAGGCUCUGGAACAAGCUGGGGUGCCUGUCUCUCAGUUCCUUCUCCCAGGGCAAGCCUCUGCACACCUCGGCCAACAGAGGAUUGAGCAUCA
B13: chr4:96106342:96106343:-_ENSG00000182168_ENST00000453304|hu_mus|FALSE|FALSE (ssRNA)
RNA: GGGAGUUCUACAGUCCGACGAUCAAGAGCCUUGGGUUCUUCUAGGAGCUGUCCUCCCAUUUGCCUCUCCAGUUGUAGAACUUCCUUCAGGGCAUCCUGUGUGUCAUCCAGGCAGUAGACUCUAAUGCUGUACUCCAGGGAAGACAACAGAGGAUUGAGCAUCA
B14: chr3:47164985:47164986:-_ENSG00000181555_ENST00000409792|hu_mus|motif|central (ssRNA)
RNA: GGGAGUUCUACAGUCCGACGAUCUCUUUCGGACCGACAUCGGGAAGAUACAUACCGAGUAUCUCGUUCAAGUUUUGAGUAGCGGCAAUAUCUAUCAUCUCUCUCUGUUUUCGAUCUUGAUGAUUUCCCCAAAUCCUCACUUUUCAACAGAGGAUUGAGCAUCA
B15: 44827152_44827272_573_5pUTR_ENSMUSG00000038518_ENSMUST00000173246|mouse|control|control (ssRNA)
RNA: GGGAGUUCUACAGUCCGACGAUCAUGAUAUUCCUCUUGGGUCUUUCCUUGCUCAUUCUGAGAUCCAAAUGCUGAUUGCAAAAGGGGACAAUUGCUUCAUGAAUUUAAAGCCGUCAGAAAUUUGCAAAAAAAUAUCCUGGUGGUCAACAGAGGAUUGAGCAUCA
B16: chr4:103533647:103533648:+_ENSG00000109320_ENST00000505458|hu_hu|motif|central (ssRNA)
RNA: GGGAGUUCUACAGUCCGACGAUCCCCCAGACCUAAUUUCUGCGCCAGAGUAGCCCAGUUUUUGUCUGGAUCAGGAAUUUCGGGUAACUUAUACAGCUGCAGCUUCACAUCUUCAGCCAGCUGUUUCAUGUCUCCUUGUGCUAGCAACAGAGGAUUGAGCAUCA
B17: 7361827_7365117_867_3pUTR_ENSMUSG00000024969_ENSMUST00000032557|mouse|control|control (ssRNA)
RNA: GGGAGUUCUACAGUCCGACGAUCGGAUGAUUCAAAACCUUCAUUAUUCUUACUUCUCGGAACAGUUUCUGUAGGCUGGAGGAGUUCAGCUGGGUCUUGUCGAUGAUCUUCACAGCUACCUCUUUCCCCGUCAGGAUGUGCCGGCAACAGAGGAUUGAGCAUCA
B18: chr4:41951345:41951346:+_ENSG00000109133_ENST00000513702|hu_hu|motif|central (ssRNA)
RNA: GGGAGUUCUACAGUCCGACGAUCAAAUAAGGUCCGACAAUAUGGGUUUCUUCGAGACGAAUAUCGAAGGGUAAGAAAUCGGUAGUAUAUAAAAGGUUGGAGCAAACUUCCUUGACCACUAAAAAGCAUAAAAACUGUCGCAGGCAACAGAGGAUUGAGCAUCA
B19: 114262960_114264180_1107_3pUTR_ENSG00000145362_ENST00000514960|human|control|control (ssRNA)
RNA: GGGAGUUCUACAGUCCGACGAUCUCUAACACCUCCACAUCCCUGCUUCUGGCCACCUCAGCAAAAUUUUCUUGUUGUUCAAGGGUCUUAUCCACUUUAUCAUCAGUCAUGCAGAAACACCUCAACCUGGCUUCAAUGGGGUCACAACAGAGGAUUGAGCAUCA
B20: chr7:139256351:139256352:-_ENSG00000064393_ENST00000406875|hu_mus|FALSE|FALSE (ssRNA)
RNA: GGGAGUUCUACAGUCCGACGAUCCUUGUGAGAUCCAUGAGUCUCCCCUUUUCAUUAUGCGAGCUUCUCUGAAAUCCUUCUGCUCACAAAGAGCCCAGGAAAGACAAUCCACGUGACAUUAAAACAAUGAAAAAAACAUAAAGACAACAGAGGAUUGAGCAUCA
B21: 70553451_70553571_107_3pUTR_ENSMUSG00000033712_ENSMUST00000035612|mouse|control|control (ssRNA)
RNA: GGGAGUUCUACAGUCCGACGAUCACACCAGGGGGACAAAGACACCCGGAACCACCGCAGCCGCCGCUGCCACCACCACCGGAAACGCCUCUCCGGAAGAGAGACCACUGGUCGGAAGCUGCCACUCUCCCGGAUAUGGUACCUCAACAGAGGAUUGAGCAUCA
B22: chr6:40197388:40197389:+_ENSMUSG00000057716_ENSMUST00000061740|mus_mus|mus_mus_mus_hu_False|18_98 (ssRNA)
RNA: GGGAGUUCUACAGUCCGACGAUCGAGACACUGGGGUGGAUGGCACCCACCUCUGUUUGGGUGCUAGCCACUAAGACUGUUAUUUUGGGAUUCAUGGCCUUGAAUAUCAAGAGGGAAGGGACGAGAAUGGAAAGAGUCAAGAGUCAACAGAGGAUUGAGCAUCA

This assay has as its target T1, UNK ZnF1-3. In words: nsRBNS (natural sequence RNA bind-n-seq); RBNS binding buffer (assumed for nsRBNS): 25 mM Tris pH 7.5, 150 mM KCl, 3 mM MgCl2, 0.01% Triton X-100, 500 ug/ml BSA, 20 U/ml SUPERase-In, 4 C; UNK is unkempt and MSI1 is Musashi-1; names of the RNAs are library labels; protein concentration not given here; high values mean tight binding.
B1 displayed a binding signal of 0.563 enrichment R. Consider B2, for which the binding signal was 0.354 enrichment R.

For the molecule B3, the binding signal is 1.08 enrichment R. With B4 the figure was 0.787 enrichment R; with B5, 0.777 enrichment R.

Turning to B6, the binding signal turned out to be 0.787 enrichment R. For the molecule B7, the binding signal turned out to be 2.04 enrichment R. B8 showed a binding signal of 1.14 enrichment R. Then B9, with 0.604 enrichment R; and B10, with 1.42 enrichment R. With B11 the figure was 0.624 enrichment R; with B12, 0.713 enrichment R. With B13, the binding signal turned out to be 0.933 enrichment R. B14 showed a binding signal of 0.667 enrichment R. In turn, B15 gave a binding signal of 1.2 enrichment R. The molecule B16 displayed a binding signal of 0.587 enrichment R. Molecule B17 returned a binding signal of 0.637 enrichment R.

B18 showed a binding signal of 1.53 enrichment R.

With B19, the binding signal came out at 1.05 enrichment R. Turning to B20, the binding signal is 1.21 enrichment R. Turning to B21, the binding signal worked out at 0.947 enrichment R. With B22 the figure was 1.35 enrichment R.
